Source: EPA's CvTdb concentration-time database
Further values from the same series stand in other lists.

Columns and labels:
Rat [1] = assay: concentration in brain after dosing; conditions: 8 h; dosed: 2-Methyltetrahydrofuran; 400 mg/kg; oral; Male; F344
Rat [2] = assay: concentration in brain after dosing; conditions: 4 min; dosed: 2-Methyltetrahydrofuran; 30 mg/kg; oral; Female; F344
Rat [3] = assay: concentration in plasma after dosing; conditions: 20 min; dosed: 2-Methyltetrahydrofuran; 10 mg/kg; iv; Female; F344
Rat [4] = assay: concentration in plasma after dosing; conditions: 20 min; dosed: 2-Methyltetrahydrofuran; 400 mg/kg; oral; Male; F344
Rat [5] = assay: concentration in brain after dosing; conditions: 3 h; dosed: 2-Methyltetrahydrofuran; 30 mg/kg; oral; Female; F344
Rat [6] = assay: concentration in plasma after dosing; conditions: 10 min; dosed: 2-Methyltetrahydrofuran; 100 mg/kg; oral; Male; Harlan Sprague Dawley
Rat [7] = assay: concentration in brain after dosing; conditions: 6 h; dosed: 2-Methyltetrahydrofuran; 100 mg/kg; oral; Female; Harlan Sprague Dawley
Rat [8] = assay: concentration in brain after dosing; conditions: 6 h; dosed: 2-Methyltetrahydrofuran; 100 mg/kg; oral; Female; Harlan Sprague Dawley; remark: listed apart in the source
Rat [9] = assay: concentration in plasma after dosing; conditions: 8 min; dosed: 2-Methyltetrahydrofuran; 10 mg/kg; oral; Female; F344
Rat [10] = assay: concentration in brain after dosing; conditions: 3 h; dosed: 2-Methyltetrahydrofuran; 10 mg/kg; iv; Male; F344
Rat [11] = assay: concentration in plasma after dosing; conditions: 2 h; dosed: 2-Methyltetrahydrofuran; 10 mg/kg; oral; Male; F344
Rat [12] = assay: concentration in brain after dosing; conditions: 2.5 h; dosed: 2-Methyltetrahydrofuran; 10 mg/kg; oral; Male; F344
Rat [13] = assay: concentration in plasma after dosing; conditions: 10 min; dosed: 2-Methyltetrahydrofuran; 30 mg/kg; oral; Male; F344
Rat [14] = assay: concentration in plasma after dosing; conditions: 10 min; dosed: 2-Methyltetrahydrofuran; 100 mg/kg; oral; Female; Harlan Sprague Dawley
Rat [15] = assay: concentration in plasma after dosing; conditions: 5 min; dosed: 2-Methyltetrahydrofuran; 400 mg/kg; oral; Male; F344
Rat [16] = assay: concentration in brain after dosing; conditions: 0.5 h; dosed: 2-Methyltetrahydrofuran; 10 mg/kg; oral; Male; F344
Rat [17] = assay: concentration in brain after dosing; conditions: 20 min; dosed: 2-Methyltetrahydrofuran; 30 mg/kg; oral; Female; F344
Rat [18] = assay: concentration in brain after dosing; conditions: 1 h; dosed: 2-Methyltetrahydrofuran; 10 mg/kg; oral; Male; F344
Rat [19] = assay: concentration in brain after dosing; conditions: 1 h; dosed: 2-Methyltetrahydrofuran; 10 mg/kg; iv; Male; F344
Rat [20] = assay: concentration in brain after dosing; conditions: 5 min; dosed: 2-Methyltetrahydrofuran; 10 mg/kg; iv; Male; F344
Rat [21] = assay: concentration in plasma after dosing; conditions: 0.75 h; dosed: 2-Methyltetrahydrofuran; 100 mg/kg; oral; Female; Harlan Sprague Dawley
Rat [22] = assay: concentration in brain after dosing; conditions: 10 min; dosed: 2-Methyltetrahydrofuran; 100 mg/kg; oral; Male; Harlan Sprague Dawley
Rat [23] = assay: concentration in plasma after dosing; conditions: 1.5 h; dosed: 2-Methyltetrahydrofuran; 400 mg/kg; oral; Female; Harlan Sprague Dawley
Rat [24] = assay: concentration in plasma after dosing; conditions: 2 min; dosed: Bromochloroacetic acid; 10 mg/kg; iv; Male; F344
Rat [25] = assay: concentration in plasma after dosing; conditions: 20 min; dosed: Bromochloroacetic acid; 10 mg/kg; iv; Male; F344
Rat [26] = assay: concentration in plasma after dosing; conditions: 0.75 h; dosed: Bromochloroacetic acid; 100 mg/kg; oral; Male; F344
Rat [27] = assay: concentration in plasma after dosing; conditions: dosed: Formamide, 300 mg/kg, oral, Female, Harlan Sprague Dawley
Rat [28] = assay: concentration in plasma after dosing; conditions: dosed: Formamide, 90 mg/kg, iv, Male, Harlan Sprague Dawley
Rat [29] = assay: concentration in plasma after dosing; conditions: dosed: Formamide, 36 mg/kg, oral, Female, Harlan Sprague Dawley
Rat [30] = assay: concentration in plasma after dosing; conditions: dosed: Formamide, 90 mg/kg, iv, Male, Harlan Sprague Dawley; remark: listed apart in the source
Rat [31] = assay: concentration in plasma after dosing; conditions: dosed: Formamide, 36 mg/kg, oral, Female, Harlan Sprague Dawley; remark: listed apart in the source
Rat [32] = assay: concentration in plasma after dosing; conditions: 1 h; dosed: Pyridine; 10 mg/kg; oral; Male; F344
Rat [33] = assay: concentration in plasma after dosing; conditions: 20 min; dosed: Pyridine; 50 mg/kg; oral; Female; F344
Rat [34] = assay: concentration in plasma after dosing; conditions: 2 min; dosed: Pyridine; 200 mg/kg; oral; Female; F344
Rat [35] = assay: concentration in plasma after dosing; conditions: dosed: Pyridine, 5 mg/kg, iv, Female, F344
Rat [36] = assay: concentration in plasma after dosing; conditions: dosed: Pyridine, 25 mg/kg, oral, Female, Harlan Sprague-Dawley
Rat [37] = assay: concentration in plasma after dosing; conditions: 40 min; dosed: Pyridine; 200 mg/kg; oral; Female; F344
Rat [38] = assay: concentration in plasma after dosing; conditions: 40 min; dosed: Pyridine; 10 mg/kg; oral; Female; Harlan Sprague-Dawley
Rat [39] = assay: concentration in plasma after dosing; conditions: dosed: Pyridine, 100 mg/kg, oral, Male, F344

CC1CCCO1 (configuration not stated) [2-Methyltetrahydrofuran]
Conditions	concentration in brain [µg/g]	concentration in plasma [ng/mL]
Rat [1]	44.1	–
Rat [2]	6.46	–
Rat [3]	–	6740
Rat [4]	–	162000
Rat [5]	0.253	–
Rat [6]	–	59600
Rat [7]	2.07	–
Rat [8]	5.22	–
Rat [9]	–	3900
Rat [10]	0.0682	–
Rat [11]	–	153
Rat [12]	0.0335	–
Rat [13]	–	18600
Rat [14]	–	45200
Rat [15]	–	198000
Rat [16]	2.93	–
Rat [17]	10.8	–
Rat [18]	0.708	–
Rat [19]	1.71	–
Rat [20]	5.21	–
Rat [21]	–	47200
Rat [22]	45.6	–
Rat [23]	–	157000

O=C(O)C(Cl)Br (configuration not stated) [Bromochloroacetic acid]
Conditions	concentration in plasma [ng/mL]
Rat [24]	22600
Rat [25]	1190
Rat [26]	40800

NC=O [Formamide]
Conditions	concentration in plasma [ng/mL]
Rat [27], 1 h	210000
Rat [27], 72 h	19700
Rat [28], 8 h	87400
Rat [28], 12 h	75500
Rat [29], 1 h	50300
Rat [29], 72 h	2500
Rat [30], 10 min	134000
Rat [30], 18 h	33900
Rat [31], 10 min	20600
Rat [31], 20 h	17900

c1ccncc1 [Pyridine]
Conditions	concentration in plasma [ng/mL]
Rat [32]	2200
Rat [33]	28800
Rat [34]	34300
Rat [37]	94200
Rat [38]	1470

Conditions	concentration in plasma [ng/mL]
Rat [35], 0.05 h	3870
Rat [35], 4 h	1650
Rat [36], 2 h	19800
Rat [36], 14 h	11700
Rat [39], 0.5 h	47700
Rat [39], 6 h	67000
